# The other results are listed elsewhere or left out.
# B1: Tamarinin (protein)
# chain: CDDSARAGNIVVYWGQGGSDNSEGSLKEACKSGHYNMIVLQQLIVYDDGRDPDLNLGAHCSDCTKLEEQIKYCQNKDIKILLQIGQVVPTQEDVKDVTKNLSEYLLKNFFSGKSGPLGEVYLNGIDIASVPEGNNLKFDELVEALNDSSTERRIYLSASPLCVYPDYYLNKAIQTEKLDFLFVQFFYQNPCIYTEGNPENLFEAMKTWTKNVPESMIFMALPATPNLDGYIPPRVLNKEILPAVSEASNFAGVMIFDRYFDRFRKYSSKIK
# What was measured:
# Experiment in all cases: glycan array binding signal (z-score within array); higher = stronger binding
# Details in all cases: glycan notation: IUPAC condensed, linker removed
# [1] = target: Fuc(a1-2)Gal(b1-4)[Fuc(a1-3)]GlcNAc(b1-2)Man(a1-3)[Fuc(a1-2)Gal(b1-4)[Fuc(a1-3)]GlcNAc(b1-2)Man(a1-6)]Man(b1-4)GlcNAc(b1-4)[Fuc(a1-6)]GlcNAc
# Summary of the method: (§1)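 Columns mapping to the same glycan were averaged after glycan names were converted to IUPAC-condensed notation. The data come from 3228 arrays in the Consortium for Functional Glycomics database, limited to those with an available protein sequence. Binding is reported as a within-array Z-score averaged across arrays of one protein sequence and across linkers.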
# [2] = target: Fuc(a1-2)Gal(b1-4)[Fuc(a1-3)]GlcNAc(b1-2)[Fuc(a1-2)Gal(b1-4)[Fuc(a1-3)]GlcNAc(b1-4)]Man(a1-3)[Fuc(a1-2)Gal(b1-4)[Fuc(a1-3)]GlcNAc(b1-2)Man(a1-6)]Man(b1-4)GlcNAc(b1-4)GlcNAc
# Summary of the method: as §1
# [3] = target: Fuc(a1-2)Gal(b1-4)[Fuc(a1-3)]GlcNAc(b1-3)Gal(b1-4)[Fuc(a1-3)]GlcNAc
# Summary of the method: as §1
# [4] = target: Fuc(a1-2)Gal(b1-4)[Fuc(a1-3)]GlcNAc(b1-3)Gal(b1-4)[Fuc(a1-3)]GlcNAc(b1-3)Gal(b1-4)[Fuc(a1-3)]GlcNAc
# Summary of the method: as §1
# [5] = target: Fuc(a1-2)Gal(b1-4)[Fuc(a1-3)]GlcNAc(b1-3)GalNAc
# Summary of the method: as §1
# [6] = target: Fuc(a1-2)Gal(b1-4)[Fuc(a1-3)]GlcNAc(b1-3)[Neu5Ac(a2-6)Gal(b1-4)GlcNAc(b1-6)]Gal(b1-4)Glc
# Summary of the method: as §1
# [7] = target: Fuc(a1-2)Gal3S(b1-4)GlcNAc
# Summary of the method: as §1
# [8] = target: Fuc(a1-2)Gal6S(b1-3)GlcNAc
# Summary of the method: as §1
# [9] = target: Fuc(a1-2)Gal6S(b1-3)GlcNAc6S
# Summary of the method: as §1
# [10] = target: Fuc(a1-2)Gal6S(b1-4)Glc
# Summary of the method: as §1
# [11] = target: Fuc(a1-2)Gal6S(b1-4)Glc6S
# Summary of the method: as §1
# [12] = target: Fuc(a1-2)[Gal(a1-3)]Gal
# Summary of the method: as §1
# [13] = target: Fuc(a1-2)[Gal(a1-3)]Gal(b1-3)GalNAc
# Summary of the method: as §1
# [14] = target: Fuc(a1-2)[Gal(a1-3)]Gal(b1-3)GalNAc(b1-3)Gal(a1-4)Gal(b1-4)Glc
# Summary of the method: as §1
# [15] = target: Fuc(a1-2)[Gal(a1-3)]Gal(b1-3)GlcNAc
# Summary of the method: as §1
# [16] = target: Fuc(a1-2)[Gal(a1-3)]Gal(b1-3)GlcNAc(b1-2)Man(a1-3)[Fuc(a1-2)[Gal(a1-3)]Gal(b1-3)GlcNAc(b1-2)Man(a1-6)]Man(b1-4)GlcNAc(b1-4)GlcNAc
# Summary of the method: as §1
# [17] = target: Fuc(a1-2)[Gal(a1-3)]Gal(b1-3)GlcNAc(b1-2)Man(a1-3)[Fuc(a1-2)[Gal(a1-3)]Gal(b1-3)GlcNAc(b1-2)Man(a1-6)]Man(b1-4)GlcNAc(b1-4)[Fuc(a1-6)]GlcNAc
# Summary of the method: as §1
# [18] = target: Fuc(a1-2)[Gal(a1-3)]Gal(b1-3)GlcNAc(b1-3)GalNAc
# Summary of the method: as §1
# [19] = target: Fuc(a1-2)[Gal(a1-3)]Gal(b1-3)GlcNAc(b1-6)GalNAc
# Summary of the method: as §1
# [20] = target: Fuc(a1-2)[Gal(a1-3)]Gal(b1-4)Glc
# Summary of the method: as §1
# [21] = target: Fuc(a1-2)[Gal(a1-3)]Gal(b1-4)GlcNAc
# Summary of the method: as §1
# [22] = target: Fuc(a1-2)[Gal(a1-3)]Gal(b1-4)GlcNAc(b1-2)Man
# Summary of the method: as §1
# [23] = target: Fuc(a1-2)[Gal(a1-3)]Gal(b1-4)GlcNAc(b1-2)Man(a1-3)[Fuc(a1-2)[Gal(a1-3)]Gal(b1-4)GlcNAc(b1-2)Man(a1-6)]Man(b1-4)GlcNAc(b1-4)GlcNAc
# Summary of the method: as §1
# [24] = target: Fuc(a1-2)[Gal(a1-3)]Gal(b1-4)GlcNAc(b1-2)Man(a1-3)[Fuc(a1-2)[Gal(a1-3)]Gal(b1-4)GlcNAc(b1-2)Man(a1-6)]Man(b1-4)GlcNAc(b1-4)[Fuc(a1-6)]GlcNAc
# Summary of the method: as §1
# [25] = target: Fuc(a1-2)[Gal(a1-3)]Gal(b1-4)GlcNAc(b1-3)GalNAc
# Summary of the method: as §1
# [26] = target: Fuc(a1-2)[Gal(a1-3)]Gal(b1-4)GlcNAc(b1-3)[Fuc(a1-2)[Gal(a1-3)]Gal(b1-4)GlcNAc(b1-6)]GalNAc
# Summary of the method: as §1
# [27] = target: Fuc(a1-2)[Gal(a1-3)]Gal(b1-4)GlcNAc(b1-6)GalNAc
# Summary of the method: as §1
# [28] = target: Fuc(a1-2)[Gal(a1-3)]Gal(b1-4)[Fuc(a1-3)]Glc
# Summary of the method: as §1
# [29] = target: Fuc(a1-2)[Gal(a1-3)]Gal(b1-4)[Fuc(a1-3)]GlcNAc
# Summary of the method: as §1
# [30] = target: Fuc(a1-2)[Gal(a1-3)]Gal(b1-4)[Fuc(a1-3)]GlcNAc(b1-3)GalNAc
# Summary of the method: as §1
# [31] = target: Fuc(a1-2)[Gal(a1-4)]Gal(b1-4)GlcNAc
# Summary of the method: as §1
# [32] = target: Fuc(a1-2)[GalNAc(a1-3)]Gal
# Summary of the method: as §1
# [33] = target: Fuc(a1-2)[GalNAc(a1-3)]Gal(b1-3)GalNAc(a1-3)[Fuc(a1-2)]Gal(b1-4)GlcNAc
# Summary of the method: as §1
# [34] = target: Fuc(a1-2)[GalNAc(a1-3)]Gal(b1-3)GalNAc(b1-3)Gal(a1-4)Gal(b1-4)Glc
# Summary of the method: as §1
# [35] = target: Fuc(a1-2)[GalNAc(a1-3)]Gal(b1-3)GlcNAc
# Summary of the method: as §1
# [36] = target: Fuc(a1-2)[GalNAc(a1-3)]Gal(b1-3)GlcNAc(b1-2)Man(a1-3)[Fuc(a1-2)[GalNAc(a1-3)]Gal(b1-3)GlcNAc(b1-2)Man(a1-6)]Man(b1-4)GlcNAc(b1-4)GlcNAc
# Summary of the method: as §1
# [37] = target: Fuc(a1-2)[GalNAc(a1-3)]Gal(b1-3)GlcNAc(b1-2)Man(a1-3)[Fuc(a1-2)[GalNAc(a1-3)]Gal(b1-3)GlcNAc(b1-2)Man(a1-6)]Man(b1-4)GlcNAc(b1-4)[Fuc(a1-6)]GlcNAc
# Summary of the method: as §1
# [38] = target: Fuc(a1-2)[GalNAc(a1-3)]Gal(b1-3)GlcNAc(b1-3)GalNAc
# Summary of the method: as §1
binder,measurement,setting,value
B1,glycan array binding signal (z-score),[1],-0.025
same,glycan array binding signal (z-score),[2],-0.167
same,glycan array binding signal (z-score),[3],-0.441
same,glycan array binding signal (z-score),[4],-0.292
same,glycan array binding signal (z-score),[5],0.311
same,glycan array binding signal (z-score),[6],-0.322
same,glycan array binding signal (z-score),[7],-0.442
same,glycan array binding signal (z-score),[8],-0.05
same,glycan array binding signal (z-score),[9],4.89
same,glycan array binding signal (z-score),[10],-0.164
same,glycan array binding signal (z-score),[11],0.044
same,glycan array binding signal (z-score),[12],-0.275
same,glycan array binding signal (z-score),[13],-0.318
same,glycan array binding signal (z-score),[14],-0.147
same,glycan array binding signal (z-score),[15],-0.121
same,glycan array binding signal (z-score),[16],0.037
same,glycan array binding signal (z-score),[17],1.46
same,glycan array binding signal (z-score),[18],0.28
same,glycan array binding signal (z-score),[19],-0.109
same,glycan array binding signal (z-score),[20],-0.32
same,glycan array binding signal (z-score),[21],-0.419
same,glycan array binding signal (z-score),[22],-0.154
same,glycan array binding signal (z-score),[23],-0.229
same,glycan array binding signal (z-score),[24],1.37
same,glycan array binding signal (z-score),[25],-0.224
same,glycan array binding signal (z-score),[26],0.565
same,glycan array binding signal (z-score),[27],0.085
same,glycan array binding signal (z-score),[28],-0.466
same,glycan array binding signal (z-score),[29],0.017
same,glycan array binding signal (z-score),[30],-0.38
same,glycan array binding signal (z-score),[31],-0.145
same,glycan array binding signal (z-score),[32],-0.388
same,glycan array binding signal (z-score),[33],-0.292
same,glycan array binding signal (z-score),[34],-0.41
same,glycan array binding signal (z-score),[35],0.135
same,glycan array binding signal (z-score),[36],-0.394
same,glycan array binding signal (z-score),[37],0.648
same,glycan array binding signal (z-score),[38],0.076

# Source: the supplement of paper PMC8728848
